Patent US20130347134A1 (published 2013)
Values belong to the binder of their own block, whether it stands above or below them.

B4: human platelet glycoprotein Ib alpha (GPIb α) on human platelets (receptor)
chain: not shown
notes: whole, on cells; Native receptor on washed platelets or whole blood; also called GPIb alpha; hGPIb-α

Tests used:
[1] = target: B4; assay: transient tethers of VWF-A1-coated beads on immobilized platelets, WSS 1.5 dyn cm-2; unfixed platelets (treated with metabolic inhibitors); R2 0.98
Procedure: (§1) The duration of these interactions are measured by recording images from a Nikon X60 DIC objective (oil immersion) viewed at a frame rate of 235 fps (Speed Vision Technologies, San Diego, Calif.) and subjected to wall shear stresses (WSS) ranging from 0.5 to 3.0 dyn cm⁻². […] The force acting on the i tether bond was calculated from force balance equations and koff plotted as a function of these forces.

[2] = target: B4; assay: transient tethers of VWF-A1-coated beads on surface-immobilized human platelets in flow, distribution of interaction times; WSS 0.5 dyn cm-2; R2 0.98
Procedure: as §1

[3] = target: B4; assay: transient tethers of VWF-A1-coated beads on surface-immobilized human platelets in flow, distribution of interaction times; WSS 1.0 dyn cm-2; R2 0.97
Procedure: as §1

[4] = target: B4; assay: transient tethers of VWF-A1-coated beads on surface-immobilized human platelets; shear stress 2.0 dyn cm-2; R2 0.95
Procedure: (§2) The force acting on the i tether bond was calculated from force balance equations and koff plotted as a function of these forces. […] Because these platelets cannot activate, the kinetics should be reflective of GPIb α in the resting state.
(§3) This antibody was made by immunizing Fischer 344 rats (3-4 months old) with recombinant WT protein. […] Spleens from animals with the highest antibody titers were harvested and splenocytes fused with Sp2/0 mouse myeloma cells (Kohler, et al., 1975).

[5] = target: B4; assay: transient tethers of VWF-A1-coated beads on surface-immobilized human platelets; shear stress 0.5 dyn cm-2; R2 0.94
Procedure: as §1, with “forces. […] Because these platelets cannot activate, the kinetics should be reflective of GPIb α in the resting state.” for “forces.”

[6] = target: B4; assay: transient tethers of VWF-A1-coated beads on immobilized platelets, WSS 1.5 dyn cm-2; platelets fixed in paraformaldehyde; R2 0.98
Procedure: as §1, with “forces. […] Because these platelets cannot activate, the kinetics should be reflective of GPIb α in the resting state.” for “forces.”

[7] = target: B4; assay: transient tethers of VWF-A1-coated beads on surface-immobilized human platelets in flow, distribution of interaction times; WSS 1.5 dyn cm-2; R2 0.96
Procedure: as §1

[8] = target: B4; assay: transient tethers of VWF-A1-coated beads on surface-immobilized human platelets; shear stress 3.0 dyn cm-2; R2 0.97
Procedure: as §2, §3

[9] = target: T1, murine platelet glycoprotein Ib alpha (GPIb α) on mouse platelets (mouse, UniProt O35930 17-734); assay: murine platelets perfused over immobilized mutant VWF-A1, wall shear rate 800 s-1
T1 construct: whole, on cells; Native receptor on mouse platelets or whole blood; also called murine GPIb α; mGPIb-α
T1 sequence (looked up): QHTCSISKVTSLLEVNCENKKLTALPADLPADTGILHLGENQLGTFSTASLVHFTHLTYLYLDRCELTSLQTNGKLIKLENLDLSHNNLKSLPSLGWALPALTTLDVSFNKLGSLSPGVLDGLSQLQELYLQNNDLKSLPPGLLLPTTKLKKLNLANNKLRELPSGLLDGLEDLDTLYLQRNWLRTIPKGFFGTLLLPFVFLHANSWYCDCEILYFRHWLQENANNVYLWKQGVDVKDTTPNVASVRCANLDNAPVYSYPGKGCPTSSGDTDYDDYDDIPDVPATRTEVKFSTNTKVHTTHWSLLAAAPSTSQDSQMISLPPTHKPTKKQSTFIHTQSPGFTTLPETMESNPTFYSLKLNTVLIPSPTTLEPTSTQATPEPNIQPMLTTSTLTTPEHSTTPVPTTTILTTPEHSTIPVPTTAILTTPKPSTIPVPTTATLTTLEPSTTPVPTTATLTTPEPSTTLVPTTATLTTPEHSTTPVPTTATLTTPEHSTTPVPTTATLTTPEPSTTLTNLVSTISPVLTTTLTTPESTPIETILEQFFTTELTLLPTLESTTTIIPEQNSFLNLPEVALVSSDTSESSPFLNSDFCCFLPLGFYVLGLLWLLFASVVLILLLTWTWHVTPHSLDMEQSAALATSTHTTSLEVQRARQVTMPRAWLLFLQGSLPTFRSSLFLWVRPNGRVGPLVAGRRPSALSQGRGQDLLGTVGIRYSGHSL

[10] = target: B4; assay: transient tethers of human VWF-A1-coated beads on surface-immobilized human platelets, wall shear stress 1 dyn cm-2; R2 0.97
Procedure: as §1, with “forces. […] Because these platelets cannot activate, the kinetics should be reflective of GPIb α in the resting state.” for “forces.”

[11] = target: T2, human plasma von Willebrand factor (VWF) (human, UniProt P04275 764-2813); assay: human whole blood perfused 4 min over surface-immobilized plasma VWF, 1600 s-1
T2 construct: Plasma-derived multimeric VWF, purified or captured on polyclonal anti-VWF; also called human VWF; human plasma VWF
Procedure: (§4) Ex vivo platelet adhesion studies. Experiments were performed in a parallel-plate flow chamber as previously described (Offermanns, S., et al., 2006). […] Subsequently, the plate was washed and non-specific interactions blocked by the addition of TBS containing 3% BSA, pH 7.4 (1 hour, 37° C.). Human or murine plasma obtained from heparinized whole blood was added and the plates placed at 37° C. for an additional 2 hours. […] The number of platelets attached per unit area (0.07 mm²) and translocation velocities were determined by off-line analysis (Image-Pro Plus, Media Cybernetics). For GPIb α inhibition studies, the function-blocking mAb 6D1 (20 μg/ml) or mAb SZ2 (20 μg/ml; Beckman Coulter, Brea, Calif.) was added to anticoagulated human blood for 30 minutes prior to use. Experiments were performed in triplicate on two separate days. An ELISA was used to ensure equivalent coating concentration of plasma and recombinant proteins (Denis, C. et al., 1998).

[12] = target: T3, mouse plasma VWF containing the majority of the human A1 domain (amino acids 1240P through 1481G of human VWF) (mouse VWF with human A1 domain, UniProt Q8CIZ8 764-2813, limits assumed); assay: parallel-plate flow system: human platelets over surface-immobilized plasma VWF
T3 construct: Plasma VWF from homozygous VWF-HA1 mice; also called VWF-HA1; VWF HA1

[13] = target: B4; assay: human whole blood perfused 4 min over surface-immobilized recombinant VWF-A1, 1600 s-1
Procedure: as §4

[14] = target: T1, murine platelet glycoprotein Ib alpha …; assay: platelet adhesion under flow (summary of Example 3)
Procedure: as §4

B1: recombinant wild-type human VWF-A1 protein ([…]), Examples 1-2 (ligand)
chain: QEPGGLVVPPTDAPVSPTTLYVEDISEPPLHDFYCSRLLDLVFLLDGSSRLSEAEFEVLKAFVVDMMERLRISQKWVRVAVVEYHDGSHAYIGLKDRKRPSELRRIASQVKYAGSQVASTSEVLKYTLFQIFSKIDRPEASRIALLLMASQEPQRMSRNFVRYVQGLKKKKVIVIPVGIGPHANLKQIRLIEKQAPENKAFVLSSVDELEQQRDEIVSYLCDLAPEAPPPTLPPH
notes: Intrachain disulfide […]; also called WT human VWF-A1; H VWF-A1
koff [1]: 7.48 s⁻¹ | koff [2]: 4.92 s⁻¹ | koff [3]: 6.54 s⁻¹ | koff [4]: 8.1 s⁻¹ | koff [5]: 5.1 s⁻¹ | koff [6]: 7.79 s⁻¹ | koff [7]: 7.35 s⁻¹ | koff [8]: 9.6 s⁻¹

Binder: B4
binding result [11]: binds | binding result [12]: binds

B5: recombinant wild-type human VWF-A1 domain protein (amino acid […]), Example 3 (ligand)
chain: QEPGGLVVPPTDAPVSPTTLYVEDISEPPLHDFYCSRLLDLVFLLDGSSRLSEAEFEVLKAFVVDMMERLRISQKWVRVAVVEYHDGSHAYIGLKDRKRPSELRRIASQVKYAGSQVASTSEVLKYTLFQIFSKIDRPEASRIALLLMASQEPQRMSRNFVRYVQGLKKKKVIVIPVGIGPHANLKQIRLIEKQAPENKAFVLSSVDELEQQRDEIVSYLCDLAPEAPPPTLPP
notes: Generated in bacteria, with a single disulfide […]; No tag is stated there; also called human rVWF-A1; WT human VWF-A1 protein
binding result [13]: binds

Further lines, results first:

binding result [9]: binds
B2: recombinant human VWF-A1 containing His1326Arg (1326H>R), Examples 1-2 (ligand)
chain: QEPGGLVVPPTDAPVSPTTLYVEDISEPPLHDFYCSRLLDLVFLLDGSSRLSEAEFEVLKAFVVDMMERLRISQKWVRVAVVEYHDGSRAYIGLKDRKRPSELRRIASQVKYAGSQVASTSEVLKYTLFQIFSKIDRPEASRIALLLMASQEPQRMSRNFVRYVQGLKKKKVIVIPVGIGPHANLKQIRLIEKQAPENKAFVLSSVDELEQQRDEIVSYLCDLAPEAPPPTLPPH
notes: The His tag is not described further

koff [10]: 0.98 s⁻¹
B3: recombinant human VWF-A1 containing the type 2B mutation Ile1309Val (1309I>V) (ligand)
chain: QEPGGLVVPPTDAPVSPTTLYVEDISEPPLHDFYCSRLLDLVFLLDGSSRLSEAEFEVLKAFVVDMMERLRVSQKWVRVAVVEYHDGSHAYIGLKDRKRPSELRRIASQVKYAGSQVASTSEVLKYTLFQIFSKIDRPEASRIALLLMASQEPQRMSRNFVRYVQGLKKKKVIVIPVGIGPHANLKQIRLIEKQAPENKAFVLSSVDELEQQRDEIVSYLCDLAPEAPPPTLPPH
notes: also called type 2B mutation alone

binding result [14]: binds
B6: recombinant human rVWF-A1 1326H>R ([…]), Example 3 (ligand)
chain: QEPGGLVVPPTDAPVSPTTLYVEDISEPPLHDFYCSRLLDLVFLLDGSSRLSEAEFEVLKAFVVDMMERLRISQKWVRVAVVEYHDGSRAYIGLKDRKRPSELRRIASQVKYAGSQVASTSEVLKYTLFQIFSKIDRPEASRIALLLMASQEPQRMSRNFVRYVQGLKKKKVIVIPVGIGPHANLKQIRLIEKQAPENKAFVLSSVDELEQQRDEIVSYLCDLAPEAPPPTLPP
